According to PubChem BioAssay (NCI):
“And” between values parts separate entries of the source, which are not always exact repeats. Equal entries are not always repeated.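 Briefly, cells in 96-well plates were exposed to five compound concentrations for 48 h, and endpoints were estimated by linear interpolation. At the GI50, growth is halved. TGI marks complete inhibition of growth.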

What follows are molecules tested on NCI-H322M lung (assay: NCI tumour cell line growth inhibition, 48 h).
`COc1cc(OC)cc(-c2ccc(-c3ccc(C(=N)N)s3)s2)c1` gave a GI50 of 1.6 µM and a TGI of 3.42 µM. In the case of `COc1ccc2[nH]c3c(C)c4cc[n+](C)cc4c(C)c3c2c1`, the GI50 is reported as 0.437 µM and 0.402 µM and the TGI is reported as 12.7 µM and 6.33 µM and 7.85 µM. Work on `C[n+]1c2cc(N)ccc2cc2ccc(N)cc21` (tested in a mixture with another compound) yielded a GI50 of 0.563 µM and a TGI of 3.06 µM. With `Cc1c2cnccc2c(C)c2c1c1cc(C(=O)O)ccc1n2C` the GI50 was 0.804 µM and the TGI was 7.64 µM. Molecule `CCCCCCCCCCCCC/C=C1\C[C@H](O)COC1=O` has a TGI of 30.4 µM. `CSC1=C(C#N)C(=O)N(c2ccc(Cl)cc2)C(=O)C1C#N` (stereo not drawn) was tested, and the TGI was over 100 µM. Molecule `CC1(C)C(=O)N(O)C(C)(C)N1N=O` has a TGI of over 10 µM. With `Nc1ccc(-c2ccc(Nc3cc(S(=O)(=O)O)c(N)c4c3C(=O)c3ccccc3C4=O)cc2)c(S(=O)(=O)O)c1` the TGI was over 100 µM. `N#CC(c1ccccc1)N(CCc1ccccc1)C(=O)c1ccccc1` (stereo not drawn) gave a TGI of over 100 µM. With `FC(F)(F)c1ccc2c(c1)nc(Cc1ccc(Cl)c(Cl)c1)n2CC1CCCN2CCCCC12` (stereo not drawn) the TGI was 33.8 µM. `CCOc1ncn(-c2ccc(NC(=S)Nc3cnccn3)cc2)n1` was tested, and the TGI was over 10 µM. Work on `OC1CSCCCSCCSCCCSC1` yielded a TGI of over 100 µM. With `Nc1ccc(C(=O)NN2C(=O)C(Cl)C2c2cc(Br)cc(Br)c2O)cc1` (stereo not drawn) the TGI was 92.4 µM. In the case of `Cc1nc2c(=O)n(C)c(=O)nc-2n(CCO)c1C`, the TGI is reported as over 100 µM. In the case of `Cc1cccc(Cl)c1NC(N)=S`, the TGI is reported as over 100 µM. With `CC(C)(C)OC(=O)NNC(=O)C1Cc2ccccc2OC1=O` (stereo not drawn) the TGI was over 100 µM. For `COc1ccc(S(=O)(=O)NC2=NCCN2C(=S)SN2CCn3c2nsc3=S)cc1OC`, the GI50 was 29.2 µM and the TGI was over 100 µM. For `c1cc2[nH]snc2c2cncc12`, the TGI was over 100 µM. Molecule `OC12CC3c4ccccc4NC3C3Oc4cccc5c4C31CCN(CC1CC1)C2C5` (stereo not drawn) has a TGI of 32.1 µM. `CC1=CSC(O)(c2ccc(Cl)cc2)c2noc(=O)n21` (stereo not drawn) was tested, and the TGI was over 100 µM. With `Cc1nc2nn(Cc3ccccc3)cc2c(=O)o1` the TGI was over 100 µM. `C=CC[N+]1(CCO)CCN=C1CCCCCCCCCCCCC` (stereo not drawn) showed a GI50 of 1.7 µM and a TGI of 3.87 µM. `O=C(/C=c1\oc(=O)/c(=C/C(=O)c2ccc(Cl)cc2)oc1=O)c1ccc(Cl)cc1` showed a TGI of over 100 µM. In the case of `O=S(Nc1ccccc1)c1ccc(-c2ccccc2)cc1` (stereo not drawn), the TGI is reported as over 100 µM. For `COc1ccc2c(c1)C(=O)c1c-2c(OCCN(C)C)nc2cc(OC)ccc12`, the GI50 was 1.36 µM and the TGI was 4.42 µM. In the case of `N#C/C(=C\c1ccc(F)cc1)c1nc2ccccc2c(=O)[nH]1`, the TGI is reported as over 100 µM. `Nc1c(S(=O)(=O)O)cc(Nc2cccc(S(N)(=O)=O)c2)c2c1C(=O)c1ccccc1C2=O` gave a TGI of over 100 µM. With `O=[N+]([O-])c1cccc(/C=C/c2ccccn2)c1` the GI50 was 51.2 µM and the TGI was over 100 µM. In the case of `CCN1CCC2(CC1)NC(=O)c1c(c3ccc(Cl)c(Cl)c3n1C)C2C#N` (stereo not drawn), the GI50 is reported as 2.74 µM and the TGI is reported as 12 µM. With `OC(COc1cccc2ccccc12)CN1CCN(c2ccc(Cl)cc2)CC1` (stereo not drawn) the GI50 was 27.5 µM and the TGI was over 100 µM. Work on `C=C(CN(C)C)C(=O)c1ccc(C)cc1C` yielded a TGI of 50.3 µM. For `O=C(CSc1nnc(Cc2ccccc2)o1)Nc1ccccc1Cl`, the TGI was over 100 µM. `CNS(=O)(=O)c1ccccc1C(=N)c1ccccc1` was tested, and the TGI was over 100 µM. In the case of `Cc1cc(O)c(C2=NN(c3ccc(S(N)(=O)=O)cc3)C(c3ccccc3O)C2)cc1Cl` (stereo not drawn), the GI50 is reported as 2.26 µM and the TGI is reported as 7.11 µM. With `[C-]#[O+].[C-]#[O+].[Ir].[O-]c1ccc2ccccc2c1N=Nc1ccccc1` the TGI was over 86.9 µM. `C=CCC(N[C@@H](CO)c1ccccc1)c1ccccn1` (stereo partly drawn) showed a GI50 of over 100 µM and a TGI of over 100 µM. Work on `O=C(C[C@@]1(O)C(=O)Nc2c(Cl)ccc(Cl)c21)c1ccc(C2CC2)cc1` yielded a GI50 of 0.663 µM and a TGI of 20.8 µM. In the case of `CC(=O)/C=C(/C=N/O)c1ccccc1`, the TGI is reported as over 100 µM. For `O=C(c1ccccn1)c1nc(-c2ccc(Cl)c(Cl)c2)nc2ccc(Cl)cc12`, the TGI was over 100 µM. `COc1cc(-c2nc(-c3nnc(-c4ccc(F)c(Cl)c4)o3)c3ccccn23)cc(OC)c1OC` was tested, and the GI50 was 5.05 µM and the TGI was over 100 µM. `COc1ccc(-c2nn(-c3ccc(NC(=O)Nc4ccc(Cl)c(Cl)c4)cc3)cc2-c2ccncc2)cc1Cl` was tested, and the GI50 was 3.54 µM and the TGI was over 100 µM. Molecule `COc1ccc(N2CCN(CN3CCN(c4ccc(OC)cc4)C3)C2)cc1` has a GI50 of over 100 µM and a TGI of over 100 µM. Work on `Cc1cc(S(N)(=O)=O)c(S/C(=N\Nc2ccc([N+](=O)[O-])cc2)c2ccc(O)cc2)cc1Cl` yielded a GI50 of 2.34 µM and a TGI of 7.43 µM. For `CN(C)CCNC(=O)c1cccc2ccc(-c3cccnc3)nc12`, the TGI was 32 µM. Work on `CN(CCCCN1CCCC1)CCCCN(C)C(=O)Cc1ccc(Cl)c(Cl)c1` yielded a TGI of 32.3 µM. In the case of `CN1CCC(C(=O)NNc2ccccc2)CC1`, the TGI is reported as over 100 µM.
